Data published in the supplement of paper PMC6089552.
Among all 3,200 compounds or so, about 300 (9.4%) showed activity. This is a selection; strong and weak results do not stand in their true shares.

Tested on: A673/TR/shEF
Assay: cell viability (LOESS-normalised, relative to median of negative controls) (log2 ratio); higher = more viable cells (less compound effect), active = hit call of the paper (over 3 MAD below the median)
Conditions: treatment time: 72 h
Outline: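 A673/TR/shEF Ewing sarcoma cells (1,500 per well, 384-well plates) were grown with or without doxycycline to induce EWS-FLI1 shRNA knockdown, starting 24 h before compounds. Library compounds at two or more concentrations, with DMSO controls, were added for three days. Cell viability was read by CellTiter-Glo luminescence on an Envision reader, then LOESS-corrected per plate, divided by the median of negative controls and log2-transformed. Hits were wells at least three median absolute deviations from the median of all screened wells.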

[1] = 0.25 µM, library screen: screen2, EWS-FLI1 expression: high (no doxycycline)
[2] = 0.25 µM, library screen: screen2, EWS-FLI1 expression: low (doxycycline-induced shRNA knockdown)
[3] = 2.5 µM, library screen: screen2, EWS-FLI1 expression: high (no doxycycline)
[4] = 2.5 µM, library screen: screen2, EWS-FLI1 expression: low (doxycycline-induced shRNA knockdown)
[5] = 0.25 µM, library screen: screen1, EWS-FLI1 expression: high (no doxycycline)
[6] = 0.25 µM, library screen: screen1, EWS-FLI1 expression: low (doxycycline-induced shRNA knockdown)
[7] = 2.5 µM, library screen: screen1, EWS-FLI1 expression: high (no doxycycline)
[8] = 2.5 µM, library screen: screen1, EWS-FLI1 expression: low (doxycycline-induced shRNA knockdown)
[9] = 0.103 µM, library screen: screen3, EWS-FLI1 expression: high (no doxycycline)
[10] = 0.103 µM, library screen: screen3, EWS-FLI1 expression: low (doxycycline-induced shRNA knockdown)
[11] = 0.308 µM, library screen: screen3, EWS-FLI1 expression: high (no doxycycline)
[12] = 0.308 µM, library screen: screen3, EWS-FLI1 expression: low (doxycycline-induced shRNA knockdown)
[13] = 0.926 µM, library screen: screen3, EWS-FLI1 expression: high (no doxycycline)
[14] = 0.926 µM, library screen: screen3, EWS-FLI1 expression: low (doxycycline-induced shRNA knockdown)
[15] = 2.8 µM, library screen: screen3, EWS-FLI1 expression: high (no doxycycline)
[16] = 2.8 µM, library screen: screen3, EWS-FLI1 expression: low (doxycycline-induced shRNA knockdown)
[17] = 8.3 µM, library screen: screen3, EWS-FLI1 expression: high (no doxycycline)
[18] = 8.3 µM, library screen: screen3, EWS-FLI1 expression: low (doxycycline-induced shRNA knockdown)
[19] = 25 µM, library screen: screen3, EWS-FLI1 expression: high (no doxycycline)
[20] = 25 µM, library screen: screen3, EWS-FLI1 expression: low (doxycycline-induced shRNA knockdown)

Measured: cell viability (log2)

Cn1ccnc1
inactive: [1] 0.126 | [2] 0.118 | [3] 0.0701 | [4] 0.0866

CCN(CC)CCOC(=O)c1ccc(N)cc1
inactive: [5] 0.112 | [6] 0.096 | [1] 0.0816 | [2] 0.0902 | [7] 0.138 | [8] 0.177 | [3] 0.0857 | [4] 0.112

CC[C@H](C)C(=O)O[C@H]1C[C@@H](C)C=C2C=C[C@H](C)[C@H](CC[C@@H]3C[C@@H](O)CC(=O)O3)[C@H]21
inactive: [5] 0.0174 | [6] -0.0358 | [7] 0.109 | [8] 0.0431

CN=C(N)NCCCC(N)C(=O)O (stereo not drawn)
inactive: [5] 0.0723 | [6] 0.0246 | [7] -0.0207 | [8] -0.0108

COc1cccc(-c2cc(=O)c3cc(OC)ccc3o2)c1
inactive: [5] 0.0549 | [6] 0.00406 | [7] 0.217 | [8] 0.137

O=c1[nH]c2cc(C(F)(F)F)ccc2n1-c1cc(C(F)(F)F)ccc1O
inactive: [1] 0.103 | [2] 0.119 | [3] 0.0481 | [4] 0.0523

COc1cc(OC)c2c(c1)O[C@H](c1cc(OC)c(OC)c(OC)c1)[C@H](OC(=O)c1cc(OC)c(OC)c(OC)c1)C2
inactive: [5] 0.0414 | [6] 0.0159 | [7] 0.0705 | [8] -0.00627

N[C@@H](CCCC(=O)O)C(=O)O
inactive: [1] 0.162 | [2] 0.0926 | [3] 0.123 | [4] 0.112

O=c1cc(-c2ccccc2)oc2cc(O)c(O)c(O)c12
inactive: [5] 0.0871 | [6] 0.0339 | [7] 0.114 | [8] 0.0862

CC(=O)N[C@@H](CS)C(=O)O
inactive: [9] 0.0817 | [10] 0.0266 | [5] 0.0841 | [6] 0.112 | [1] -0.0515 | [2] 0.129 | [11] 0.066 | [12] -0.0031 | [13] 0.076 | [14] 0.0628 | [7] 0.237 | [8] 0.191 | [3] 0.12 | [4] 0.106 | [15] 0.0679 | [16] 0.0909 | [17] 0.0493 | [18] 0.0506 | [19] 0.11 | [20] 0.106

O=c1cc(-c2ccccc2)[nH]c2nc(Cl)ccc12
inactive: [1] 0.217 | [2] 0.163 | [3] 0.125 | [4] 0.151

COCCN1C(=O)/C(=C\c2ccc(-c3ccc(Br)cc3)o2)SC1=S
inactive: [5] 0.0753 | [6] 0.00476 | [7] 0.101 | [8] 0.0615

O=c1[nH]c(=O)c2nc3ccccc3nc2[nH]1
inactive: [1] 0.162 | [2] 0.112 | [3] 0.0736 | [4] 0.114

CC(=O)O[C@H]1C[C@@]2(C)[C@@H](C[C@@H](O)[C@H]3[C@@]4(C)CC[C@@H](O)[C@@H](C)[C@@H]4CC[C@@]32C)/C1=C(\CCC=C(C)C)C(=O)O
inactive: [5] 0.122 | [6] 0.0295 | [7] 0.146 | [8] 0.0181

COCc1nc2c([nH]1)c(=O)n(C)c(=O)n2CC(C)C
inactive: [1] 0.153 | [2] 0.158 | [3] 0.128 | [4] 0.164

NC(=O)OCC(COC(N)=O)c1ccccc1
inactive: [1] 0.14 | [2] 0.139 | [3] 0.151 | [4] 0.0729

C[C@H]1NC(=O)NC1=O
inactive: [5] 0.0544 | [6] 0.0103 | [7] 0.0268 | [8] 0.0311

Cc1ccnc(NS(=O)(=O)c2ccc(N)cc2)n1
inactive: [5] 0.0856 | [6] 0.0669 | [7] 0.0686 | [8] 0.126

OCCN(C(=S)Nc1ccc2nccnc2c1)c1ccccc1
inactive: [5] 0.0686 | [6] 0.0667 | [7] 0.0818 | [8] 0.102

Nc1ccc(S(=O)(=O)Nc2cnc3ccccc3n2)cc1
inactive: [5] 0.0806 | [6] 0.0245 | [7] 0.121 | [8] 0.0149

NCCCC(O)(P(=O)(O)O)P(=O)(O)O
inactive: [9] 0.131 | [10] 0.0188 | [11] 0.106 | [12] 0.113 | [13] 0.142 | [14] 0.0555 | [15] 0.03 | [16] 0.118 | [17] 0.0655 | [18] 0.0777 | [19] 0.0916 | [20] 0.151

COC(=O)N[C@H](C(=O)N[C@@H](Cc1ccccc1)[C@@H](O)CN(Cc1ccc(-c2ccccn2)cc1)NC(=O)[C@@H](NC(=O)OC)C(C)(C)C)C(C)(C)C
inactive: [9] -0.0462 | [10] 0.0593 | [11] -0.00424 | [12] 0.00689 | [13] 0.0398 | [14] 0.0145 | [15] 0.025 | [16] -0.0449 | [17] 0.0194 | [18] 0.0559 | [19] -0.0289 | [20] 0.0555

COC(=O)Nc1ccc(-c2nc(N3CCOCC3)c3cnn(C4CCN(C(=O)OC)CC4)c3n2)cc1
active: [15] -0.281 | [16] -0.237 | [17] -0.419 | [18] -0.244 | [19] -0.744 | [20] -0.369
inactive: [9] -0.0923 | [10] 0.0164 | [11] -0.0767 | [12] -0.0949 | [13] -0.134 | [14] -0.0918

O=C(O)CN(CC(=O)O)Cc1cc2c(cc1O)Oc1cc(O)c(CN(CC(=O)O)CC(=O)O)cc1C21OC(=O)c2ccccc21
inactive: [5] 0.133 | [6] 0.0463 | [7] 0.15 | [8] 0.0168

CC(=O)OC(CC(=O)[O-])C[N+](C)(C)C (stereo not drawn)
inactive: [5] 0.00442 | [6] 0.0665 | [7] 0.0316 | [8] -0.00031

CCCCNc1cc(C(=O)O)cc(S(N)(=O)=O)c1Oc1ccccc1
inactive: [9] 0.0523 | [10] -0.0116 | [5] 0.146 | [6] 0.112 | [1] 0.271 | [2] 0.123 | [11] 0.0349 | [12] 0.0222 | [13] 0.08 | [14] 0.102 | [7] 0.14 | [8] 0.15 | [3] 0.173 | [4] 0.0632 | [15] 0.116 | [16] 0.107 | [17] 0.138 | [18] -0.000538 | [19] 0.135 | [20] 0.0448

C[C@H](Cn1cnc2c(N)ncnc21)OCP(=O)(O)O
inactive: [9] 0.0857 | [10] 0.09 | [1] 0.128 | [2] 0.113 | [11] 0.00908 | [12] 0.0155 | [13] 0.0338 | [14] 0.0939 | [3] 0.189 | [4] 0.0365 | [15] 0.0533 | [16] 0.0269 | [17] -0.0007 | [18] 0.0852 | [19] 0.0436 | [20] 0.126

CC(=O)Oc1ccccc1C(=O)Oc1ccccc1C(=O)O
inactive: [5] 0.0903 | [6] 0.0838 | [7] 0.129 | [8] 0.0743

COc1c(C(C)C)oc2cc3oc(=O)ccc3cc12
inactive: [5] 0.0745 | [6] 0.0131 | [7] 0.0973 | [8] 0.0387

CC(C)n1c(/C=C/C(O)CC(O)CC(=O)O)c(-c2ccc(F)cc2)c2ccccc21 (stereo not drawn)
active: [17] -0.668 | [18] -0.538 | [19] -2.7 | [20] -1.87

CCCCCC(O)c1cccc(OCc2ccc3ccccc3n2)c1 (stereo not drawn)
inactive: [1] 0.0916 | [2] 0.06 | [3] 0.0895 | [4] 0.053

COc1cc2ncnc(Nc3cccc(Cl)c3)c2cc1OC
active: [7] -0.137 | 25 µM, library screen: screen1, EWS-FLI1 expression: high (no doxycycline) -0.119
0.289: [5]
inactive: 0.025 µM, library screen: screen1, EWS-FLI1 expression: high (no doxycycline) 0.237 | 0.025 µM, library screen: screen1, EWS-FLI1 expression: low (doxycycline-induced shRNA knockdown) 0.01 | [6] 0.0337 | [1] 0.134 | [2] 0.0168 | [8] 0.122 | [3] 0.175 | [4] 0.00846
0.297: 25 µM, library screen: screen1, EWS-FLI1 expression: low (doxycycline-induced shRNA knockdown)

O=c1oc2cc(O)ccc2s1
inactive: [9] -0.0407 | [10] 0.0636 | [5] 0.062 | [6] 0.039 | [11] 0.0118 | [12] 0.0239 | [13] -0.0187 | [14] 0.0384 | [7] 0.12 | [8] 0.0991 | [15] 0.0497 | [16] 0.0966 | [17] -0.0359 | [18] 0.0991 | [19] -0.142 | [20] 0.0552

CC(=O)Oc1cc(-c2coc3cc(OC(C)=O)c(OC(C)=O)c(OC(C)=O)c3c2=O)cc(OC(C)=O)c1OC(C)=O
inactive: [5] 0.0397 | [6] -0.0292 | [7] 0.0912 | [8] -0.0545

O=C(O)c1ccccc1O
inactive: [5] 0.145 | [6] 0.132 | [7] 0.122 | [8] 0.244

CCOC(=O)c1cnc2c(cnn2CC)c1NN=C(C)C
inactive: [1] 0.197 | [2] 0.0927 | [3] 0.0502 | [4] 0.0616

NC(=O)c1ccc(I)c([N+](=O)[O-])c1
inactive: [9] -0.0936 | [10] 0.0142 | [11] -0.0721 | [12] -0.0195 | [13] 0.0208 | [14] 0.0718 | [15] 0.0293 | [16] 0.0487 | [17] 0.0217 | [18] 0.061 | [19] -0.0148 | [20] 0.0274
